Reference: the supplement of paper PMC10126150
Values marked as one replicate rest on one cluster of the flow cell; about a third of the high ones do not repeat.

System: ATP
Assay: switch fluorescence ratio, 500 uM ATP over buffer (Cy3 cluster intensity, sum of 5 cycles each) (fold (ratio)); higher = stronger signal-on switching upon ATP binding; sequences stand for … in TCGTCGGCAGCGTCAGATGTGTATAAGAGACAGTTTTTTTTTTTTTTTTTTTTTTTTT…TC
Details: aptamer strand: ATP DNA aptamer (quencher-CACCTGGGGGAGTATTGCGGAGGAAGG + anchor), 100 nM annealed; ATP concentration: 500 uM; one replicate
Outline: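 Exposure to 500 uM ATP lasted 15 min at 22 °C before imaging, and a selection-buffer image was taken beforehand, for Cy3-labelled switching-strand clusters on a modified Illumina MiSeq flow-cell annealed to 100 nM quencher-labelled ATP aptamer. Five buffer/ATP cycles were run with NaOH stripping and re-annealing between them. The fluorescence ratio per cluster is summed target-cycle over summed buffer-cycle Cy3 intensity, averaged per switch-domain sequence. Clusters outside 100-1000 RFU were excluded.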

Sequence	switch fluorescence ratio
TCTCCTAAA	1.3
AGTAGAGTTC	0.999
TGTAGGCATC	0.981
AGCAGATTTT	1.06
TTTGTCAGCG	1.05
CTTGTAACTC	1.03
CATTCTGGTT	0.928
AAGAATCTTG	1.01
TTATATCTCG	1.01
GACTCGCCAA	1.98
AAGATATCTT	0.959
TGCATAGTGC	1.01
TGAGTTGGAT	1
TGGCCGTGTG	0.991
TTCGTAATAA	2.05
GCCATTCTAA	0.974
TATATTAACT	1.07
TATGTAGAAA	1.02
CATTCAGAGG	1.01
GAAGACATTT	0.98
ATTAAAACAC	1.12
CATAGGTCCT	1
TGAATTGACT	0.999

Sequence	switch fluorescence ratio
AGGTAGCTAT	1.01
TCCTGATGTG	1.02
CCCGGTCTGA	1.01
CGCTAGTGCT	1.14
AGTGGCGGA	0.966
TGCAATTCAA	1.05
TCATAAGCGA	1.24
GGGTTGATG	0.974
AAATCCAGTT	0.998
GCGCTTTTCA	1.03
CGACGTAATT	4.35
TTTGCTTACC	1.05
ATAACCAAAG	1.02
GTTTGCTTGC	1
GACAGTTTTT	0.988
TCGTACGGAA	1.14
AACGGGGTA	1.02
CCGATGTATG	1.26
AGCATCAATG	1.06
GGATCATTCT	0.989
CAATATAGA	0.991
CATAACCCGT	0.972
ACCCGTGAAG	1.01

Sequence	switch fluorescence ratio
ATTTGACGAA	1.02
TGTATTCGGC	1.01
AGTAGATTTC	1
TCGCGAATTT	0.98
CTCGCCTAAA	1.04
CGTTGATCTA	1.01
TAGATCAGTC	1
TGAGTGCGTT	1.04
CTGTTACGGC	1.02
TAGCGCTTAG	0.991
TGGACTAGCG	0.991
TAAGGAAGGC	0.988
ATAGGAGGAA	1
CAGTGAGAA	1.04
CTATGGTG	1.04
GCTGGACTGG	1.04
AGGTAACCTG	1.3
CTGCTGGCTT	1.06
GGAATGGCGT	0.979
CGTCAGTAGG	1.07
TAACAATAAG	1.03
GTTTCATATT	1.03
CGCGTAGCGA	1.01

Sequence	switch fluorescence ratio
CATTTGTTAC	1.03
TGCAGGATCA	1.02
TTGTTATTG	1.02
CGGCCATGGG	0.96
TTCGTACAAA	0.993
CGCGAAAATA	1.01
GAAGCCCTTT	0.94
CTCGGCGATG	1.52
TTGGAGGCGC	0.987
GTTGATGGGT	0.957
GCGGAGCCGA	1.03
TGCAGACGTG	1.02
CCGGTCCGTT	1.03
TATAGGGATA	0.979
AATCTCATCT	1.02
TGGTAAAAGA	1.04
TCACGAAGGA	0.984
CTAAACGGGT	0.986
ACACGTCATA	1.23
GACATTACAT	1.14
CGCTTTCAGT	0.998
GTTGCGACAA	1.27
AGACGTGCCT	1.06

Sequence	switch fluorescence ratio
CACGAGTAGA	1.05
TTCATTGAGC	0.98
ATCCTGTTGT	0.977
CAGCTTGGT	1.03
ACGGGCGCAC	1.08
TTTAACTTC	1.04
GAAGTCTATA	0.999
AAATCTTAT	1.02
GCTATCCCCT	1.09
TTGAGAGTAA	1.02
AGAGGGTTCA	1.01
GGAGGCCGCA	1.04
AGGGACTGCT	1
GGTGACCGGT	0.963
AGGACCAAGC	1.02
CGATCTGGGT	0.971
TGTGTAAAAG	0.999
CGGCGATCTG	1.01
CCTATGATTA	1.02
CGGCCGGGAG	1.02
ATATGGGAG	1.03
GAAATGTGGA	0.999
GAGATGGGAC	0.983

Sequence	switch fluorescence ratio
CGAATAGGCA	1.01
TTAATCTCGA	0.99
GCAGACTTGG	0.975
ATTAGATATG	0.968
GACTCACTGG	1.07
CTTACCTGCA	1.63
ACATGACGT	1.12
CAATTGGTAG	0.986
TCGGAGATGT	0.957
TCGAACCTCA	1.07
CAATGTGTCC	1.05
GCGCTGGCCC	1.02
TCCTAGTTCG	0.977
TAGGGGACGC	1.01
GGGGCAGAGA	0.99
CATGGGAATG	1.01
GCAAAGATTT	0.984
AAACGAATCT	1.02
AAAACGGAAA	0.94
GAGAGGGTGC	1.07
CGAGATGACC	0.998
GCGAAGGGTT	0.976
CGAACTTACC	1.19

Sequence	switch fluorescence ratio
AAGCTCATGT	0.994
AGGTACCTGG	1.03
ATCCCGGTTG	1.09
CATTGATCTT	1.03
GCAAGGCCTT	0.991
CGTGGGCCTA	0.97
AACGAATTTG	0.988
CTGCTAAATA	1.08
TAAGAACTTA	1.01
TTACTGGGCG	0.964
AGCCCGCTGT	1.09
GCTGCTACTG	1.08
CGTTTTGGTA	0.999
TATTGTTCGT	0.978
TTTACAATCT	1.04
AGGAGTCCAT	0.99
ATCAGACTGC	0.946
CAATTCCCTG	1.04
TCGGCCTAAA	0.994
